# Assay results taken from the supplement of paper PMC8728848.
# The other results are listed elsewhere or left out.
# Columns and labels:
# Assay in all cases: glycan array binding signal (z-score within array); higher = stronger binding
# Details in all cases: glycan notation: IUPAC condensed, linker removed; mutation: Y228W
# [1] = target: Gal3S(b1-3)[Fuc(a1-4)]GlcNAc
# Summary of the method: (§1)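 Columns mapping to the same glycan were averaged after glycan names were converted to IUPAC-condensed notation. The data come from 3228 arrays in the Consortium for Functional Glycomics database, limited to those with an available protein sequence. Binding is reported as a within-array Z-score averaged across arrays of one protein sequence and across linkers.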
# [2] = target: Gal3S(b1-4)Glc
# Summary of the method: as §1
# [3] = target: Gal3S(b1-4)Glc6S
# Summary of the method: as §1
# [4] = target: Gal3S(b1-4)GlcNAc
# Summary of the method: as §1
# [5] = target: Gal3S(b1-4)[Fuc(a1-3)]Glc6S
# Summary of the method: as §1
# [6] = target: Gal3S(b1-4)[Fuc(a1-3)]GlcNAc
# Summary of the method: as §1
# [7] = target: Gal3S(b1-4)[Fuc(a1-3)]GlcNAc6S
# Summary of the method: as §1
# [8] = target: Gal3S4S(b1-4)GlcNAc
# Summary of the method: as §1
# [9] = target: Gal3S6S(b1-4)GlcNAc
# Summary of the method: as §1
# [10] = target: Gal3S6S(b1-4)GlcNAc6S
# Summary of the method: as §1
# [11] = target: Gal4S(b1-4)GlcNAc
# Summary of the method: as §1
# [12] = target: Gal4S6S(b1-4)GlcNAc
# Summary of the method: as §1
# [13] = target: Gal6P(b1-4)GlcNAc
# Summary of the method: as §1
# [14] = target: Gal6S(b1-3)GlcNAc
# Summary of the method: as §1
# [15] = target: Gal6S(b1-3)GlcNAc6S
# Summary of the method: as §1
# [16] = target: Gal6S(b1-4)Glc
# Summary of the method: as §1
# [17] = target: Gal6S(b1-4)Glc6S
# Summary of the method: as §1
# [18] = target: Gal6S(b1-4)GlcNAc
# Summary of the method: as §1
# [19] = target: Gal6S(b1-4)GlcNAc6S
# Summary of the method: as §1
# [20] = target: GalNAc(a1-3)Gal
# Summary of the method: as §1
# [21] = target: GalNAc(a1-3)GalNAc
# Summary of the method: as §1
# [22] = target: GalNAc(a1-3)GalNAc(b1-3)Gal(a1-4)Gal(b1-4)Glc
# Summary of the method: as §1
# [23] = target: GalNAc(a1-3)GalNAc(b1-3)Gal(a1-4)Gal(b1-4)GlcNAc
# Summary of the method: as §1
# [24] = target: GalNAc(b1-3)Gal
# Summary of the method: as §1
# [25] = target: GalNAc(b1-3)Gal(a1-4)Gal(b1-4)GlcNAc
# Summary of the method: as §1
# [26] = target: GalNAc(b1-3)Gal(a1-4)Gal(b1-4)GlcNAc(b1-3)Gal(b1-4)Glc
# Summary of the method: as §1
# [27] = target: GalNAc(b1-3)Gal(a1-6)Gal(b1-4)Glc
# Summary of the method: as §1
# [28] = target: GalNAc(b1-3)GalNAc
# Summary of the method: as §1
# [29] = target: GalNAc(b1-3)GlcNAc
# Summary of the method: as §1
# [30] = target: GalNAc(b1-4)Gal(b1-4)Glc
# Summary of the method: as §1
# [31] = target: GalNAc(b1-4)GlcNAc
# Summary of the method: as §1
# [32] = target: GalNAc(b1-4)GlcNAc(b1-2)Man
# Summary of the method: as §1
# [33] = target: GalNAc(b1-4)GlcNAc(b1-2)Man(a1-3)[GalNAc(b1-4)GlcNAc(b1-2)Man(a1-6)]Man(b1-4)GlcNAc(b1-4)GlcNAc
# Summary of the method: as §1
# [34] = target: GalNAc(b1-4)GlcNAc(b1-3)GalNAc(b1-4)GlcNAc
# Summary of the method: as §1
# [35] = target: GalNAc(b1-4)GlcNAc6S
# Summary of the method: as §1
# [36] = target: GalNAc(b1-6)GalNAc
# Summary of the method: as §1
# [37] = target: GalNAc3S(b1-4)GlcNAc
# Summary of the method: as §1
# [38] = target: GalNAc3S(b1-4)GlcNAc3S
# Summary of the method: as §1
# [39] = target: GalNAc3S(b1-4)[Fuc(a1-3)]GlcNAc
# Summary of the method: as §1
# [40] = target: GalNAc4S6S(b1-4)GlcNAc
# Summary of the method: as §1
# [41] = target: GalNAc6S(b1-4)GlcNAc
# Summary of the method: as §1
# [42] = target: Glc(a1-4)Glc
# Summary of the method: as §1
# [43] = target: Glc(a1-4)Glc(a1-4)Glc(a1-4)Glc
# Summary of the method: as §1
# [44] = target: Glc(a1-6)Glc(a1-6)Glc
# Summary of the method: as §1
# [45] = target: Glc(a1-6)Glc(a1-6)Glc(a1-6)Glc
# Summary of the method: as §1
# [46] = target: Glc(b1-4)Glc
# Summary of the method: as §1
# [47] = target: Glc(b1-6)Glc
# Summary of the method: as §1
# [48] = target: GlcA(b1-3)Gal
# Summary of the method: as §1
# [49] = target: GlcA(b1-3)GlcNAc
# Summary of the method: as §1
# [50] = target: GlcA(b1-6)Gal
# Summary of the method: as §1
# [51] = target: GlcA3S(b1-3)Gal(b1-4)GlcNAc(b1-2)Man
# Summary of the method: as §1
# [52] = target: GlcA3S(b1-3)Gal(b1-4)GlcNAc(b1-3)Gal(b1-4)Glc
# Summary of the method: as §1
# [53] = target: GlcNAc(a1-3)Gal(b1-4)GlcNAc
# Summary of the method: as §1
# [54] = target: GlcNAc(a1-4)Gal(b1-3)GlcNAc
# Summary of the method: as §1
# [55] = target: GlcNAc(a1-4)Gal(b1-4)GalNAc
# Summary of the method: as §1
# [56] = target: GlcNAc(a1-4)Gal(b1-4)GlcNAc
# Summary of the method: as §1
# [57] = target: GlcNAc(a1-4)Gal(b1-4)GlcNAc(b1-3)Gal(b1-4)Glc
# Summary of the method: as §1
# [58] = target: GlcNAc(a1-4)Gal(b1-4)GlcNAc(b1-3)Gal(b1-4)GlcNAc
# Summary of the method: as §1
# [59] = target: GlcNAc(a1-4)Gal(b1-4)GlcNAc(b1-3)Gal(b1-4)GlcNAc(b1-3)Gal(b1-4)GlcNAc
# Summary of the method: as §1
# [60] = target: GlcNAc(a1-4)Gal(b1-4)GlcNAc(b1-3)Gal(b1-4)[Fuc(a1-3)]GlcNAc(b1-3)Gal(b1-4)[Fuc(a1-3)]GlcNAc
# Summary of the method: as §1
binder,measurement,setting,value
"Epa1-NP-mutant-Y228W (Candida glabrata), Q6VBJ0 (protein) MILNPALFLNKCVCIYTTLILLLLTNGGYATSSNDISLASKDPTTFPLGCSPDITTPKKGLSMELYSYDFRKKGSYPCWDAAYLDPNYPRTGYKSHRLLAKVDGVTGNINFYYHATKGCTPQLGHLPASYNYPKPLTMTNFTMLLYGYFRPKVTGFHTFTISADDLLFVNFGAGNAFDCCRRDSSADHFGNYQAYAIWGSKTAKDELTVHLDAGVYYPIRLFYNNREWDGALSFTFKTESNENTVSDFSEYFFSLDDTEEGCPGLISYDSSCASVKTSKIIGIDYHTETPNENLVPITKTIYHLGIPCTGTTTTPLCGSGFYDPLANKCVTINTSSTSSVTKTTSHTTSKEVSFHSSISSQKTLIPKSIPSPYGPIKSQSIPTEMETSSEISSSEYAFSDVISTPSHSPYTKKHSSLNSSSYTSTVIHSLTSYSISQGIFSTSLSEQNITSKSSTDKFSTATSMSNNITQSSIIISQFSTNNENYTTTSMHTSSDKISTETLNNSISTTTSILFSNSSTILKNNTTIISSDKDTHYHPVNPTIVCSTNKTEIICASITQPSISNSNNHWSSSVLKFNSTTVRSTLPSSAGSNETSINVPFSSSTESNTSTSSTSTSNSKMVRSTLPSSAGSNETSISVPFSSSTESNTSTSSTSTSNSKMVRSTLPSSAGSNETSINVPFSSSTESNTSTSSTSTSNSKTVRSTPFSSAGIIMTSLSQRNNKSASSYASSNSKCYNTADSCRKVHSTPSYLLTSSYTSEGVDYDCSLVSTKLKINDTNCVNNKHTTKSCLKTSVTTTIPTLEIKTARKSSSNTIGLHSYPTSSPNKSISSAPIIGYISSFKTIKTASPSYQTSDLTTITTITSLNNPGSTAVENTHESNDKSRKTSSNDISSKHSVIKETKDAVESSNKSHQTNTLKCSSIIIASSSHNSYESLGGTTLTLTLSKVYSPQNNDTLPFLEISEVNPSRTVLPESSKMMQYLTSTEERNKTARNTIATNIVSISTFHFEGEGNAIRMGYTQLLLMLIGIIVMNIGT",glycan array binding signal (z-score),[1],0.037
same,glycan array binding signal (z-score),[2],0.028
same,glycan array binding signal (z-score),[3],-0.121
same,glycan array binding signal (z-score),[4],-0.29
same,glycan array binding signal (z-score),[5],0.488
same,glycan array binding signal (z-score),[6],-0.19
same,glycan array binding signal (z-score),[7],-0.015
same,glycan array binding signal (z-score),[8],-0.353
same,glycan array binding signal (z-score),[9],-0.07
same,glycan array binding signal (z-score),[10],-0.037
same,glycan array binding signal (z-score),[11],-0.096
same,glycan array binding signal (z-score),[12],-0.424
same,glycan array binding signal (z-score),[13],-0.168
same,glycan array binding signal (z-score),[14],-0.267
same,glycan array binding signal (z-score),[15],0.205
same,glycan array binding signal (z-score),[16],0.635
same,glycan array binding signal (z-score),[17],1.09
same,glycan array binding signal (z-score),[18],0.31
same,glycan array binding signal (z-score),[19],3.63
same,glycan array binding signal (z-score),[20],-0.128
same,glycan array binding signal (z-score),[21],-0.17
same,glycan array binding signal (z-score),[22],-0.397
same,glycan array binding signal (z-score),[23],-0.245
same,glycan array binding signal (z-score),[24],-0.214
same,glycan array binding signal (z-score),[25],0.025
same,glycan array binding signal (z-score),[26],-0.295
same,glycan array binding signal (z-score),[27],-0.203
same,glycan array binding signal (z-score),[28],-0.323
same,glycan array binding signal (z-score),[29],-0.269
same,glycan array binding signal (z-score),[30],0.075
same,glycan array binding signal (z-score),[31],-0.199
same,glycan array binding signal (z-score),[32],-0.134
same,glycan array binding signal (z-score),[33],0.126
same,glycan array binding signal (z-score),[34],-0.329
same,glycan array binding signal (z-score),[35],-0.29
same,glycan array binding signal (z-score),[36],-0.478
same,glycan array binding signal (z-score),[37],-0.128
same,glycan array binding signal (z-score),[38],-0.217
same,glycan array binding signal (z-score),[39],-0.325
same,glycan array binding signal (z-score),[40],-0.279
same,glycan array binding signal (z-score),[41],-0.043
same,glycan array binding signal (z-score),[42],-0.29
same,glycan array binding signal (z-score),[43],-0.151
same,glycan array binding signal (z-score),[44],-0.164
same,glycan array binding signal (z-score),[45],-0.307
same,glycan array binding signal (z-score),[46],-0.326
same,glycan array binding signal (z-score),[47],-0.236
same,glycan array binding signal (z-score),[48],-0.209
same,glycan array binding signal (z-score),[49],-0.206
same,glycan array binding signal (z-score),[50],0.341
same,glycan array binding signal (z-score),[51],-0.362
same,glycan array binding signal (z-score),[52],-0.379
same,glycan array binding signal (z-score),[53],-0.131
same,glycan array binding signal (z-score),[54],-0.163
same,glycan array binding signal (z-score),[55],-0.487
same,glycan array binding signal (z-score),[56],-0.185
same,glycan array binding signal (z-score),[57],-0.369
same,glycan array binding signal (z-score),[58],-0.327
same,glycan array binding signal (z-score),[59],-0.335
same,glycan array binding signal (z-score),[60],0.412
